Some of the results follow. At the low end of the ranking the order means little.

For this test, the system named is T1, GST-NbGlk1(82-244).
T1 sequence: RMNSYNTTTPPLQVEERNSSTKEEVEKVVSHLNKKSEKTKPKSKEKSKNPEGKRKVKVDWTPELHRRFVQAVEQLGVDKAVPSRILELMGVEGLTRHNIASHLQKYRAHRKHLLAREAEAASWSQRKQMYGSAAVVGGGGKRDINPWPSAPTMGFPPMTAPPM
In words: protein-binding microarray.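 Note: rank-based score ranging −0.5 to +0.5 with E above 0.45 taken as significant binding.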 The note with it: NbGlk1 is a Golden2-like transcription factor of Nicotiana benthamiana; high values mean tight binding; most listed sequences are background and not binding sites; double strand, one strand shown.
ATGGCGTA: the binding signal was -0.0603 E-score.
The same measure for AGCAGTGG: -0.11 E-score.
ACATCCTG: the binding signal was -0.0847 E-score.
The same measure for ACTTATCG: 0.031 E-score; for ACTCCCCG: -0.147 E-score.
For ATGAGCCC the value was -0.287 E-score; for ACTTTGGG, -0.0705 E-score.
Consider AGGCGGTC, for which the binding signal is -0.345 E-score.
The same measure for CAACTACC: -0.0561 E-score; for ACCCAAAT: 0.0351 E-score; for ATTGTAGG: 0.0245 E-score.
Consider AAGGTCAA, for which the binding signal is -0.124 E-score.
The same measure for ATGCGGGG: -0.119 E-score.
For AGCCGCTG the value was -0.302 E-score; for AGCGCTAG, -0.235 E-score.
For ATAATTGC the value was 0.135 E-score.
Take CAAGCTCA: the binding signal is -0.12 E-score.
For AGATGAAA the value was 0.123 E-score.
For ATCTCGAA the value was 0.367 E-score; for CACGGTAA, -0.0494 E-score.
The same measure for ACGTTACA: 0.0583 E-score.
On to CACTCAAA, for which the binding signal stood at 0.121 E-score.
For CAACGACA the value was -0.0665 E-score; for ATATTAAG, 0.251 E-score; for AAATCAAT, 0.31 E-score.
AACATGCA: the binding signal was -0.0508 E-score.
For ACACACGC the value was -0.0902 E-score.
The same measure for ATGTCGTC: -0.167 E-score.
For AGGGAAAT the value was 0.334 E-score; for ACCATTGA, -0.108 E-score; for ATTTGACC, 0.122 E-score.
As for ACGGTGAC, the binding signal was -0.178 E-score.
The same measure for ACCACAGA: -0.0966 E-score; for ACGGGCGC: -0.233 E-score.
As for AAAACATA, the binding signal was 0.139 E-score.
As for ACCGCATA, the binding signal is -0.036 E-score.
Sequence AGGAATCG came in with a binding signal of 0.295 E-score.
In turn, ATCCGAGG came in with a binding signal of 0.111 E-score.
For ATACTTAA the value was 0.13 E-score; for AAAAGTTA, 0.041 E-score; for AAAGCTTA, 0.0594 E-score.
AGGATCTA showed a binding signal of 0.314 E-score.
The same measure for ATGGACCG: -0.312 E-score; for AAATTTAC: 0.0625 E-score.
The same measure for ATCGAGGA: 0.0587 E-score.
On to AACGTATT, for which the binding signal turned out to be 0.151 E-score.
The same measure for ACGCCGGA: -0.148 E-score.
For the sequence ATAGCTTA, the binding signal was -0.000357 E-score.
ACCGGCAC: the binding signal was -0.183 E-score.
The same measure for ACTGGATG: -0.102 E-score; for AAATTCCG: 0.162 E-score; for ATCGAGCC: 0.0173 E-score.
For the sequence ATACAGTG, the binding signal stood at 0.0451 E-score.
Take AAACCGGT: the binding signal was -0.104 E-score.
Regarding ATGGCAGA, the binding signal was found to be 0.0251 E-score.
Turning to AAAGAACC, the binding signal was -0.0619 E-score.
The same measure for ATGATGCC: -0.082 E-score; for AGCCACAT: -0.134 E-score; for AAGGCAGC: -0.152 E-score.
For ACGAATAC the value was 0.0944 E-score; for AGGAATAC, 0.101 E-score.
For ATCTTTGC the value was 0.199 E-score.
Take ATTCCCTG: the binding signal is 0.323 E-score.
The same measure for ATGTGGTG: 0.0183 E-score.
Sequence ATAAAGGG showed a binding signal of 0.044 E-score.
In the case of ACGGAGGG, the binding signal is -0.258 E-score.
As to ATCAAGGG, the binding signal was -0.0888 E-score.
AGTGAGAG displayed a binding signal of 0.0562 E-score.
With ACAGCGAG, the binding signal was -0.181 E-score.
For AAACTAGC the value was -0.0753 E-score.
For AAGACGTC, the binding signal was 0.0011 E-score.
The sequence ATCAAAAA displayed a binding signal of 0.187 E-score.
The same measure for ACGGTAAT: 0.22 E-score; for AAACATTC: 0.00265 E-score.
The sequence ATCGTAGA yielded a binding signal of 0.188 E-score.
For CAGATGGC, the binding signal was -0.188 E-score.
For the sequence AAAATTTG, the binding signal was 0.187 E-score.
The same measure for CAATGATC: 0.115 E-score.
The same measure for ACCGTGGG: -0.229 E-score; for AACCTGCT: -0.101 E-score.
AATTAATG: the binding signal was -0.0162 E-score.
As for CAACATAC, the binding signal was determined as 0.0518 E-score.
CAATATAA had a binding signal of 0.191 E-score.
As to AGTGGGCC, the binding signal was -0.205 E-score.
The sequence ATTCTTGG showed a binding signal of 0.242 E-score.
The same measure for AAAATGAG: 0.0374 E-score.
The same measure for AACATCTG: 0.0873 E-score; for AAAGCTAT: -0.0432 E-score.
For AATCAAAG the value was 0.221 E-score.
With ACTTTCAT, the binding signal was -0.0675 E-score.
The same measure for AGTGCAAA: 0.101 E-score.
For ACTTAGCG the value was -0.0501 E-score.
The same measure for ATCACCGC: 0.183 E-score; for AATAGACA: 0.0391 E-score.
CAGATTTC yielded a binding signal of 0.486 E-score.
With ATAGGGAA, the binding signal worked out at 0.0269 E-score.
In the case of ACTGCGTC, the binding signal was -0.119 E-score.
The same measure for ACAGAAAG: -0.0348 E-score.
For the sequence ATGACCTC, the binding signal is -0.159 E-score.
For the sequence AGGCGAGC, the binding signal was -0.262 E-score.
CACAATTC: the binding signal stood at 0.127 E-score.
The same measure for ACTATGAT: 0.13 E-score.
For ACAACAGT the value was -0.0309 E-score.
The same measure for AACGAATT: 0.141 E-score; for AGTTCAAT: 0.0557 E-score.
In the case of ACGGGAGT, the binding signal was -0.22 E-score.
For ACAGCGAT the value was 0.0505 E-score; for ATTGACTG, -0.042 E-score.
AACTGAAA showed a binding signal of 0.121 E-score.
The sequence ATCTGTTA gave a binding signal of 0.295 E-score.
For ACTACAAC the value was 0.012 E-score; for AAGTTATC, -0.045 E-score; for CAAACCTG, -0.102 E-score.
For ATGTGGTA the value was 0.0306 E-score; for ACTTAATG, 0.0355 E-score.
The same measure for ACACCTAG: -0.08 E-score; for CACTGGTA: -0.0868 E-score.
Turning to CAAACGAA, the binding signal was -0.0108 E-score.
Take ACGTACAG: the binding signal was -0.129 E-score.
Take CACCCTGC: the binding signal was -0.183 E-score.
The same measure for ACAGGCAT: 0.0211 E-score.
AATCCCCA yielded a binding signal of 0.346 E-score.
As to AATTTGCG, the binding signal is 0.223 E-score.
On to AAGAGTTG, for which the binding signal was -0.207 E-score.
For ATCAATCG the value was 0.0438 E-score.
For ATACAGCG the value was 0.00892 E-score; for AATAATTC, 0.0514 E-score.
The same measure for ACAATCTG: 0.404 E-score.
With ACCACGAG, the binding signal is -0.0573 E-score.
The same measure for ATATTGTA: 0.232 E-score.
With AGCTCTTC, the binding signal was -0.282 E-score.
ACGCTTCT: the binding signal was -0.114 E-score.
For AAACACCG the value was 0.0902 E-score; for AAGGGGAA, 0.0657 E-score; for AAGGGCCG, -0.288 E-score.
The same measure for AGCGGAGA: 0.159 E-score.
The same measure for AATCGTCT: 0.277 E-score; for AGGAGGGC: -0.349 E-score.
Consider AACGGGTG, for which the binding signal is -0.241 E-score.
Sequence ATCCGCAA displayed a binding signal of 0.325 E-score.
Consider AACCATTC, for which the binding signal is -0.0686 E-score.
For ATGTAAGC the value was -0.064 E-score; for ACTTAGGG, -0.0726 E-score.
For CAACCACC the value was -0.207 E-score; for AAGTGGAC, -0.0428 E-score.
For the sequence AAACATCA, the binding signal stood at 0.0318 E-score.
For ACATGCAG the value was -0.0664 E-score; for AAAGTCTT, -0.0353 E-score.
The same measure for ACCGCCAC: -0.183 E-score.
For CAAACGCG the value was -0.0254 E-score.
Turning to CACATGTG, the binding signal was -0.116 E-score.
Take ACCAACTC: the binding signal was -0.138 E-score.
For AGTTTCGC the value was 0.0258 E-score; for ACCCCCTA, -0.213 E-score.
The same measure for ATCCTGCC: 0.216 E-score; for AGAACGCA: -0.203 E-score.
For AGTGTTAA the value was -0.0985 E-score; for ATGAATTA, 0.062 E-score.
For the sequence AAGACTTA, the binding signal is -0.0151 E-score.
For AAAGTGCG the value was -0.143 E-score; for AGAGTTAA, -0.0689 E-score; for CACGGATA, 0.231 E-score.
For AGAATTCC the value was 0.144 E-score.
AGCCAACA: the binding signal was -0.0566 E-score.
Turning to AACTCAGC, the binding signal is -0.114 E-score.
Sequence AATAATCC yielded a binding signal of 0.307 E-score.
For the sequence AGTAGACC, the binding signal was -0.103 E-score.
The same measure for AGGGCCCG: -0.319 E-score.
On to ACATACAC, for which the binding signal amounted to 0.133 E-score.
Consider AGTGCACC, for which the binding signal is -0.266 E-score.
For AGGTAGAA the value was 0.145 E-score.
The same measure for CAATAGGC: -0.25 E-score.

(Values after publication PMC5836133.)
